Assay results as given in PubChem BioAssay (NCI).
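These data come from cells grown in 96-well plates and exposed to compound for 48 hours at five concentrations. TGI denotes the concentration required for complete inhibition of growth.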

Legend:
Assay in all cases: DTP human tumour cell line panel, 48 h
[1] = tested on: 786-0 renal
[2] = tested on: A498 renal
[3] = tested on: A549 NSCLC
[4] = tested on: ACHN renal
[5] = tested on: BT-549 breast
[6] = tested on: CAKI-1 renal
[7] = tested on: CCRF-CEM leukemia
[8] = tested on: COLO 205 colon
[9] = tested on: DU-145 prostate
[10] = tested on: EKVX NSCLC
[11] = tested on: HCC-2998 colon
[12] = tested on: HCT-116 colon
[13] = tested on: HCT-15 colon
[14] = tested on: HOP-62 NSCLC
[15] = tested on: HOP-92 NSCLC
[16] = tested on: HS 578T breast
[17] = tested on: IGROV1 ovarian
[18] = tested on: K-562 leukemia
[19] = tested on: KM12 colon
[20] = tested on: LOX IMVI melanoma
[21] = tested on: M14 melanoma
[22] = tested on: MALME-3M melanoma
[23] = tested on: MCF7 breast
[24] = tested on: MDA-MB-231 breast
[25] = tested on: MDA-MB-435
[26] = tested on: MDA-N
[27] = tested on: MOLT-4 leukemia
[28] = tested on: NCI-H23 lung
[29] = tested on: NCI-H460 lung
[30] = tested on: NCI-H522 lung
[31] = tested on: NCI/ADR-RES ovarian
[32] = tested on: OVCAR-3 ovarian
[33] = tested on: OVCAR-4 ovarian
[34] = tested on: OVCAR-5 ovarian
[35] = tested on: OVCAR-8 ovarian
[36] = tested on: PC-3 prostate
[37] = tested on: RPMI-8226 leukemia
[38] = tested on: RXF 393 renal
[39] = tested on: SF-268 CNS
[40] = tested on: SF-295 CNS
[41] = tested on: SK-MEL-2 melanoma
[42] = tested on: SK-MEL-28 melanoma
[43] = tested on: SK-MEL-5 melanoma
[44] = tested on: SK-OV-3 ovarian
[45] = tested on: SN12C renal
[46] = tested on: SNB-19 CNS
[47] = tested on: SNB-75 CNS
[48] = tested on: SR leukemia
[49] = tested on: SW-620 colon
[50] = tested on: T-47D breast
[51] = tested on: TK-10 renal
[52] = tested on: U251 CNS
[53] = tested on: UACC-257 melanoma
[54] = tested on: UACC-62 melanoma
[55] = tested on: UO-31 renal

Measured: TGI

O=C1Cc2c([nH]c3ccc(C(F)(F)F)cc23)-c2cc(Br)ccc2N1
> 100 µM: all assays above
